# According to the supplement of paper PMC8728848:
# This is one part of the list.
# Columns and labels:
# Experiment in all cases: glycan array binding signal (z-score within array); higher = stronger binding
# Conditions in all cases: glycan notation: IUPAC condensed, linker removed
# [1] = target: Gal(a1-3)Gal(b1-3)GlcNAc
# Method in brief: (§1)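 The binding signal is a Z-score computed within each array and averaged over linkers. Arrays of the same protein sequence at different concentrations or buffers were also averaged together. Data originate from 3228 arrays in the Consortium for Functional Glycomics database, kept only where the protein sequence was available.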
# [2] = target: Gal(a1-3)Gal(b1-4)Glc
# Method in brief: as §1
# [3] = target: Gal(a1-3)Gal(b1-4)GlcNAc
# Method in brief: as §1
# [4] = target: Gal(a1-3)Gal(b1-4)[Fuc(a1-3)]GalNAc
# Method in brief: as §1
# [5] = target: Gal(a1-3)Gal(b1-4)[Fuc(a1-3)]GlcNAc
# Method in brief: as §1
# [6] = target: Gal(a1-3)GalNAc
# Method in brief: as §1
# [7] = target: Gal(a1-3)GlcNAc
# Method in brief: as §1
# [8] = target: Gal(a1-3)[Gal(a1-4)]Gal(b1-4)GlcNAc
# Method in brief: as §1
# [9] = target: Gal(a1-4)Gal(b1-4)Gal
# Method in brief: as §1
# [10] = target: Gal(a1-4)Gal(b1-4)GalNAc
# Method in brief: as §1
# [11] = target: Gal(a1-4)Gal(b1-4)Glc
# Method in brief: as §1
# [12] = target: Gal(a1-4)Gal(b1-4)GlcNAc
# Method in brief: as §1
# [13] = target: Gal(a1-4)GlcNAc
# Method in brief: as §1
# [14] = target: Gal(a1-6)Glc
# Method in brief: as §1
# [15] = target: Gal(b1-2)Gal
# Method in brief: as §1
# [16] = target: Gal(b1-3)Gal
# Method in brief: as §1
# [17] = target: Gal(b1-3)GalNAc
# Method in brief: as §1
# [18] = target: Gal(b1-3)GalNAc(b1-3)Gal(a1-4)Gal(b1-4)Glc
# Method in brief: as §1
# [19] = target: Gal(b1-3)GalNAc(b1-3)Gal(b1-4)Glc
# Method in brief: as §1
# [20] = target: Gal(b1-3)GalNAc(b1-3)Gal(b1-4)GlcNAc
# Method in brief: as §1
# [21] = target: Gal(b1-3)GalNAc(b1-4)Gal(b1-4)Glc
# Method in brief: as §1
# [22] = target: Gal(b1-3)GalNAc(b1-4)[Neu5Ac(a2-3)]Gal(b1-4)Glc
# Method in brief: as §1
# [23] = target: Gal(b1-3)GlcNAc
# Method in brief: as §1
# [24] = target: Gal(b1-3)GlcNAc(b1-3)Gal(b1-4)Glc
# Method in brief: as §1
# [25] = target: Gal(b1-3)GlcNAc(b1-3)Gal(b1-4)GlcNAc
# Method in brief: as §1
# [26] = target: Gal(b1-3)[Fuc(a1-4)]GlcNAc
# Method in brief: as §1
# [27] = target: Gal(b1-3)[Fuc(a1-4)]GlcNAc(b1-3)Gal(b1-4)GlcNAc
# Method in brief: as §1
# [28] = target: Gal(b1-3)[Fuc(a1-4)]GlcNAc(b1-3)Gal(b1-4)[Fuc(a1-3)]GlcNAc
# Method in brief: as §1
# [29] = target: Gal(b1-3)[GlcNAc(b1-6)]GalNAc
# Method in brief: as §1
# [30] = target: Gal(b1-3)[GlcNAc(b1-6)]GlcNAc
# Method in brief: as §1
# [31] = target: Gal(b1-3)[Neu5Ac(a2-6)]GalNAc
# Method in brief: as §1
# [32] = target: Gal(b1-3)[Neu5Ac(a2-6)]GlcNAc
# Method in brief: as §1
# [33] = target: Gal(b1-3)[Neu5Ac(a2-6)]GlcNAc(a1-4)Gal(b1-4)Glc
# Method in brief: as §1
# [34] = target: Gal(b1-3)[Neu5Ac(a2-6)]GlcNAc(b1-6)Gal(b1-4)Glc
# Method in brief: as §1
# [35] = target: Gal(b1-3)[Neu5Ac(b2-6)]GalNAc
# Method in brief: as §1
# [36] = target: Gal(b1-3)[Neu5Ac(b2-6)]GlcNAc
# Method in brief: as §1
# [37] = target: Gal(b1-4)GalNAc(a1-3)[Fuc(a1-2)]Gal(b1-4)GlcNAc
# Method in brief: as §1
# [38] = target: Gal(b1-4)GalNAc(b1-3)[Fuc(a1-2)]Gal(b1-4)GlcNAc
# Method in brief: as §1
# [39] = target: Gal(b1-4)Glc
# Method in brief: as §1
# [40] = target: Gal(b1-4)Glc6S
# Method in brief: as §1
# [41] = target: Gal(b1-4)GlcNAc
# Method in brief: as §1
# [42] = target: Gal(b1-4)GlcNAc(b1-2)Man(a1-3)[Gal(b1-4)GlcNAc(b1-2)Man(a1-6)]Man(b1-4)GlcNAc(b1-4)GlcNAc
# Method in brief: as §1
# [43] = target: Gal(b1-4)GlcNAc(b1-3)Gal(b1-4)Glc
# Method in brief: as §1
# [44] = target: Gal(b1-4)GlcNAc(b1-3)Gal(b1-4)GlcNAc
# Method in brief: as §1
# [45] = target: Gal(b1-4)GlcNAc(b1-3)Gal(b1-4)GlcNAc(b1-3)Gal(b1-4)GlcNAc
# Method in brief: as §1
binder,measurement,setting,value
T7P4 (Tuber borchii) (protein) GSHIGPYMSFYASSEDVRTIEEGGRTWLVGRARRADGSWQDIKLDLDNIIGNRDGHLTWGEQNFTQSASDIRFNFEGSNVPVLRAKLRNAAGGEQESDLNLGERLTNNNGDLVFN,glycan array binding signal (z-score),[1],-0.193
same,glycan array binding signal (z-score),[2],-0.222
same,glycan array binding signal (z-score),[3],-0.221
same,glycan array binding signal (z-score),[4],-0.207
same,glycan array binding signal (z-score),[5],-0.208
same,glycan array binding signal (z-score),[6],-0.216
same,glycan array binding signal (z-score),[7],-0.215
same,glycan array binding signal (z-score),[8],-0.171
same,glycan array binding signal (z-score),[9],0.23
same,glycan array binding signal (z-score),[10],-0.172
same,glycan array binding signal (z-score),[11],0.218
same,glycan array binding signal (z-score),[12],-0.173
same,glycan array binding signal (z-score),[13],-0.219
same,glycan array binding signal (z-score),[14],-0.214
same,glycan array binding signal (z-score),[15],-0.226
same,glycan array binding signal (z-score),[16],-0.089
same,glycan array binding signal (z-score),[17],-0.205
same,glycan array binding signal (z-score),[18],-0.05
same,glycan array binding signal (z-score),[19],5.7
same,glycan array binding signal (z-score),[20],-0.217
same,glycan array binding signal (z-score),[21],-0.223
same,glycan array binding signal (z-score),[22],-0.221
same,glycan array binding signal (z-score),[23],-0.179
same,glycan array binding signal (z-score),[24],5.55
same,glycan array binding signal (z-score),[25],-0.217
same,glycan array binding signal (z-score),[26],-0.22
same,glycan array binding signal (z-score),[27],-0.207
same,glycan array binding signal (z-score),[28],-0.218
same,glycan array binding signal (z-score),[29],-0.221
same,glycan array binding signal (z-score),[30],-0.216
same,glycan array binding signal (z-score),[31],-0.213
same,glycan array binding signal (z-score),[32],-0.216
same,glycan array binding signal (z-score),[33],5.89
same,glycan array binding signal (z-score),[34],5.74
same,glycan array binding signal (z-score),[35],-0.16
same,glycan array binding signal (z-score),[36],-0.104
same,glycan array binding signal (z-score),[37],0.016
same,glycan array binding signal (z-score),[38],-0.211
same,glycan array binding signal (z-score),[39],-0.128
same,glycan array binding signal (z-score),[40],-0.215
same,glycan array binding signal (z-score),[41],-0.225
same,glycan array binding signal (z-score),[42],-0.223
same,glycan array binding signal (z-score),[43],2.77
same,glycan array binding signal (z-score),[44],-0.196
same,glycan array binding signal (z-score),[45],-0.224
